Laboratory results reported in the RNAGym collection of RNA variant scans (doi:10.1073/pnas.2313332121).
Variants at the background level are over-represented here.

B1: TPR 5TU (parent)
chain: GGAUCUUCUCGAUCUAACAAAAAAGACAAAUCUGCCACAAAGCUUGAGAGCAUCUUCGGAUGCAGAGGCGGCAGCCUUCGGUGGCGCGAUAGCGCCAACGUUCUCAACUAUGACACGCAAAACGCGUGCUCCGUUGAAUGGAGUUUAUCAUG

Variants of: B1
Test: polymerase ribozyme fitness, log enrichment relative to wild type (log ratio); higher = more active; in vitro selection for triplet polymerase activity
Procedure, shortened: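 Fitness measures genotype enrichment against wild-type enrichment on a logarithmic scale, with inverse-variance-weighted averaging of replicates. The logarithm is base 2, and genotypes were kept only with ≥10 input reads and ≥1 read per output in Illumina sequencing. The sequenced libraries came from one triplicate in vitro selection round, including frozen incubation at −7 °C, of PCR-built, transcribed mutant libraries of each subunit of a heterodimeric triplet polymerase ribozyme.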

GGAUCUUCUCGAUCUAACAAUAACGACAAAUGUGCCACAAAGCUUGAGACCAUCUUCGGAUGCAGAAGCGGCAGCCUUCGGUGGCGCGAUAGCACCAACGUUCUCAACUAUGACACGCAAAACGCGUGCUCCGUUGAAUGGAGUUUAUCAUG and GGAUCUUCUCGAUCUAACAAGAAAGACAAAUGUGCCACAAAGCUUGAGACCAUCUUCGGAUGCAGAGGCGGCAGCCUUCGGUGGCGCGAUAGCGGAAACGUUCUCAACUAUGACACGCAAAACGCGUGCUCCGUUGAAUGGAGUUUAUCAUG cannot be ordered by “polymerase ribozyme fitness (log ratio)” value: ≤ -4.2 for the first, ≤ -4.2 for the second.

Compared with GGAUCUUCUCGAUCUAACAAGAAAGACAAAUCUGCCACAAAGCUUGAGAGCAUCUUCGGAUGCAGAGGCGGCAGCCUUCGGUGGCGCGAUAGCGCCAACGUUCUCAACUAUGACACGCAAAACGCGUGCUCCGUUGAAUGGAAUUUAUCAUG, GGAUCUUCUCGAUCUAACAAGAAAGAUAAAUCUGCCACAUAGCUUGAGAGCAUCUUCGGAUGCAGAGGUGGCAGCCUUCGGUGGCGCGAUAGCGGCAGUGUUCUCAACUAUGACUCGCAAAACGCGUGCUCCGUUGAAUGGUGUUUAUCAUG is lower in “polymerase ribozyme fitness (log ratio)” value: -0.569 for the first, ≤ -4.2 for the second.

First: GGAUCUUCUCGAUCUAACAAGAAAGACAAAUCUGCCACAAAGCUUGAGAGCAUCUUCGGAUGCAGAGGCGGCAGCCUUCGGUGUCGCGAUAGCGCCAACGUUCUCAACUAUGACACGUAAAACGCGUGCUCCGUUGAAUGGAGUUUAUCAUG
Second: GGAUCUUCUCGAUCUAACAAGAAAAACAAAUCUGCCACAAAGCUUGAGAGCAUCUACGGAUGCAGAGGCGGCAGCCUUCGGUGGCGCGAUAGUGCCAACGUUCUCAACUAUGACACGCGCAACGCGUGCUCCGUUGAAUGGAGUUCAUCAUG
The “polymerase ribozyme fitness (log ratio)” value of the first is higher: -1.39 for the first, -3.11 for the second.

Going from GGAUCUUCUCGAUCUAACAAGAAAGACAAAUCUUCCACAAAGCUUGAGAGCAUCCGCGGAUGCAGAGGCGGCAGCCUUCGGUGGCGAGAUAGCGCCAACGUUCUCAACUAUGACACGCAAAACGCCUGCUCCGUUGAAUGGAGAUUAUCAUG to GGAUCUUCUCGAUCUAACAAGAAAGACAAAUCUGCCACAAAGCUUGAGAGCAUCUUCGGAUGCAGAGGCGGCAGCCUUCGGUGGCGCGAUACCGCCAACGUUCUCAACUAUGACACGCAAAACGCGUGCUCCGUUGAAUGGAGUUUAUCAUG, the “polymerase ribozyme fitness (log ratio)” value rises from ≤ -4.2 to 0.365.

GGAUCUUCUCGAUCUAACAAGAAAGACAAAUCUGCCACAAAGCUUGAGAUCAUCUUCGGAUGCAGAGGCGGCAGCCUUCGGUGGCGCGAUAGCGGUAACGUUCUCAACUCUGACACGCAAAACGCGUGCUCCGUUGAAUGGAGUUUAUCAUG and GGAUCUUCUCGAUCUAACAAGAAAGACAAAUCUGCCACAAAGCUUGAGAGCAUCUUCGGAUGCAGAGGCGGCAGCCUUCGGUGACGUGAUAGCGCCAACGUUCUCAACGAUGACACGCAAAACGCGUGCUCCGUUGAAGGGAGCUUAUCAUG cannot be ordered by “polymerase ribozyme fitness (log ratio)” value: ≤ -4.2 for the first, ≤ -4.2 for the second.

GGAUCUUCUCGAUCUAACAAUAAAGCCAAAUCUGCCACAAAGCUUGAGAGCGUCUUCGGAUGCAGAGGCGGCAGCCUUCGGUGGCGCGAAAGCGCCAACGUUCUCAACUAUGACACGCAAAACGCGUGCUCCGUUGAAUGGAGUUUAUCAUG and GGAUCUUCUCGAUCUAACAAGAAAGACAAAUCUGCCACAAAGCUUGAGAGCAUCUUCGGAUCCAGAUGCGGCAGCCUUCGGUGGUGCGAUAGCGCCAACGUUCUCGACUAUGACACGCAAAACGCGUGCUCCGUUGAAUGGAGUUUAUCAUG cannot be ordered by “polymerase ribozyme fitness (log ratio)” value: ≤ -4.2 for the first, ≤ -4.2 for the second.

GGAUCUUCUCGAUCUAACAAGAAAGACAAAUCUGCCACAAAGCUUGAGAGCAUCUUCGGAUGCAGAGGCGGCAGCCUUCGGUGGCGCGAUAGCGCCAACGUUCUCAACUAUGACACGCAAAACGAAUGCUCCGUUGAACGGAGUUUACCAUG and GGAUCUUCUCGAUCUAACAAUAUAGACAAAUCUCCCACAAAGCUUGAGAGCAUCUUCGGAUGCAGAGGCGGCAGCCUACGGUGGCGAGAUAGCGCCAACGUUCUCAACUAUGACACGCAAAACGCGUGCUCCGUGGAAUUGAGUUUGUCAUG cannot be ordered by “polymerase ribozyme fitness (log ratio)” value: ≤ -4.2 for the first, ≤ -4.2 for the second.

GGAUCUUCUCGAUCUAACAAGAAAGACAAAUCUGCCACAAAGCUUGAGAGCAUCUUCGGAUGCAGAGGCGGCAGCCUUAGGUGGCGCGAUAGAGCCAACGUUCUCAACUAUGACACGCAAAACGCAUGCUCCGUUGAAUGGAGUUUAUCAUG and GGAUCUUCUCGAUCUAACAAGAAAGACAAAUCUGCCACAAAGCUUGAGAGCAUCUUCGGAUGCAGAGGCGGCAGCCUUCGGUGGCGGGAUAGCGCCAACGUUCUCAACUAUGACACGCAAAACGCGUGCUCCGUUGAAUGGAGUUUAUCAUG cannot be ordered by “polymerase ribozyme fitness (log ratio)” value: ≤ -4.2 for the first, ≤ -4.2 for the second.

GGAUCUUCUCGAUCUAACAAUAAAGCCAAAUCUGCCACAUAGCUUGAGAGCAUCUUCGGAUGCAGAGGCGACAGCAUUCGGUGGCGCGAUGGCGCAAACGUUCUCAACUAUGACACGCAAAACGCGUGCUCCGUUGAAUGCAGUUUAUCAUG and GGAUCUUCUCGAUCUAACAAGAAAGACAAAUCUGCCACAAAGCUUGAGAGCAUCUUCGGAUGCAGAGGCGGCAGCCUUCGGUGGCGCGAUACCGCCAACGUUCUCAAAUAUGACACGCAGAUCGCGUGUUCCGUUGAAUGGAGUUUAUCAUG cannot be ordered by “polymerase ribozyme fitness (log ratio)” value: ≤ -4.2 for the first, ≤ -4.2 for the second.

With GGAUCUUCUCGAUCUAACAAUAAAGCCAAAUCUGCCACAAAGCUUGAGAGCAUCUUCGGAUGCAGAGGCGGCAGCCUUCGGUGGCGCGAUAGCGCCAACGUUCUCAACUAUGACACGCAAAACGCGUGCUCCGUUGAAUGGAGUUUAUCAUG the “polymerase ribozyme fitness (log ratio)” value was -1.48.
